Experimental data published in PubChem BioAssay AID686978 (National Center for Advancing Translational Sciences (NCATS), 2013).
Among all 420,000 compounds or so, about 64,000 (15%) were called active. Inconclusive results, whose numbers are uncertain, are shown with a selection of clear calls. The call rests on the fitted dose curve; in most records, active means well fitted inhibition curve with a large enough effect; inconclusive means small, poorly fitted or top-dose-only effect; inactive means flat fitted curve, though single readings scatter. No potency is given beside an inconclusive call; the fits are too rough.

test: qHTS for Inhibitors of human tyrosyl-DNA phosphodiesterase 1 (TDP1): qHTS in cells in absence of CPT; settings: DT40 Tdp1-/- hTDP1 cells, no CPT, ATP luminescence, 48 h; activity change, negative = growth inhibition: at 46.2 µM (top of the series) unless noted; further: nearly all actives have a fitted effect of over 55% in size
Procedure, shortened: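 Compound effects on proliferation are scored in DT40 Tdp1-/-;hTDP1 cells in the absence of CPT. ATP levels (CellTiter-Glo luminescence) are recorded after a ≥48 hr, 37 °C incubation.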
On the % scale 0 is the no-effect control and ±100 the full control effect; potency means the concentration at half of the fitted maximal effect; tags describe the fitted curve by direction and shape.

| Structure (SMILES) | Potency | activity change, negative = growth inhibition |
| --- | --- | --- |
| Cc1c(C(=O)N2CCN(c3ccccn3)CC2)sc2ncnc(N3CCN(c4ccccc4)CC3)c12 | active: 11.6 µM |  |
| CC(NC(=O)CSc1nc2ccc(N)cc2s1)c1ccccc1 (centres undefined) | inconclusive [inhibitor, single point] |  |
| COc1ccccc1C(=O)NCCn1ccc2ccccc21 | inconclusive [inhibitor, single point] |  |
| CCCCC1(C2CCCC2)NC(=O)NC1=O (centres undefined) |  | inactive: -18.4% |
| CC(C)(C)c1cc(C(=O)NC2CC2)n(Cc2ccc(F)cc2)n1 |  | inactive: -10.8% |
| CCOc1ccc(N(C)S(=O)(=O)c2ccc(C)c(C(=O)NCc3ccccc3OC)c2)cc1 | inconclusive [inhibitor, single point] |  |
| CCOC(=O)C1CCN(C2=NC(=O)/C(=C/c3ccccc3OC)S2)CC1 |  | inactive: -5.69% |
| COc1ccc(CN2CCC(=O)N([C@H](CO)c3ccccc3)CC2)cc1OC | inactive |  |
| CCn1cc(/C=C(\NC(=O)c2ccccc2OC)C(=O)NCCCN2CCOCC2)c2ccccc21 |  | inactive: -6.22% |
| C=CCNC(=O)c1c(N)n(-c2cccc(S(N)(=O)=O)c2)c2nc3ccccc3nc12 | active: 11.6 µM |  |
| CCOC(=O)C(NC(=O)c1cccc(Cl)c1)(OCc1ccc(F)cc1)C(F)(F)F (centres undefined) | inconclusive [inhibitor, single point] |  |
| O=C(NC1CCCCC1)[C@@H]1CC=C[C@@H]2CCN(C3CCCCC3)C(=O)[C@@H]21 | inconclusive [inhibitor, single point] |  |
| CC1CCCCN1CCNC(=O)c1ccc2c(c1)N(Cc1cccc(Cl)c1)C(=O)c1ccccc1S2(=O)=O (centres undefined) | inconclusive [inhibitor, single point] |  |
| O=C(NCc1ccccc1)c1ccc(C2SCC(=O)N2Cc2ccccc2)cc1 (centres undefined) |  | inconclusive: -31.7% [inhibitor] |
| COc1ccc(CNC(=O)c2ccc(NC(=O)N3CCSc4ccccc43)cc2)cc1 | inconclusive [inhibitor, single point] |  |
| O=C(c1ccc([N+](=O)[O-])cc1)N1CCN(Cc2ccccc2)CC1 |  | inactive: -11.7% |
| COc1ccc(-c2cc(NC=O)c3ncc(-c4ccc(OC)c(OC)c4)n3c2)cc1OC | active: 4.11 µM |  |
| COc1ncnc2c1ncn2CCCN1CCN(Cc2cccc3ccccc23)CC1 | active: 23.1 µM |  |
| CCOCCn1c(SCc2ccc(F)cc2)nc2c1c(=O)[nH]c(=O)n2C | inconclusive [inhibitor, single point] |  |
| CCc1ccc(C2=NN(C(C)=O)C(c3ccco3)C2)cc1 (centres undefined) | active: 16.4 µM |  |
| CCc1ccc(N(C(=O)c2csnn2)C(C(=O)NC2CCCCC2)c2cccnc2)cc1 (centres undefined) | inconclusive [inhibitor, full curve, poor fit] |  |
| Cc1noc(C)c1C(=O)Nc1cccc2ncccc12 |  | inactive: -21.2% |
| S=C(NCC1CCCO1)N1CCN(Cc2ccccc2Cl)CC1 (centres undefined) | inconclusive [inhibitor, single point] |  |
| CCSc1cc(C)nc2c(-c3ccccc3)c(C)nn12 |  | inactive: -15.7% |
| CCOC(=O)c1ccc(NC(=O)c2c(Cl)cc(C)nc2C)cc1 | active: 5.17 µM |  |

| Structure (SMILES) | Potency | activity change, negative = growth inhibition |
| --- | --- | --- |
| COc1ccc(-c2cc3ccc(F)cc3cn2)cc1 |  | inactive: -27.2% |
| COc1ccccc1C(C(=O)NCc1ccc(F)cc1)N(C(=O)c1csnn1)C1CC1 (centres undefined) | inconclusive [inhibitor, partial curve] |  |
| Cc1onc(-c2ccccc2)c1-c1csc(COc2ccccc2)n1 | inconclusive [inhibitor, partial curve, poor fit] |  |
| OC(c1ccc(F)c(F)c1)c1ncc(-c2ccc(Cl)cc2)[nH]1 (centres undefined) | inconclusive [inhibitor, single point] |  |
| CCOc1ccc(CSC(=N)N)cc1 | active: 18.4 µM |  |
| CC(C)c1ccc(CCNC(=O)CCNS(=O)(=O)c2ccc(Br)cc2)cc1 |  | inactive: -16.9% |
| C=CCC1(CC=C)CCCN1C(=O)CC1C(=O)NCCN1Cc1cccc(OC)c1OC (centres undefined) |  | inconclusive: -30% [inhibitor] |
| O=C(NNC(=O)c1cccnc1SCc1cccc([N+](=O)[O-])c1)c1ccc(F)cc1 | active: 11.6 µM |  |
| CCOC(=O)NC(=O)CSc1nnc(C2CC2)n1Cc1ccco1 |  | inactive: -24.8% |
| CCOC(=O)N1CCC(NC(=O)C2CCN(C(=O)c3cc4oc(C)cc4n3Cc3c(F)cccc3Cl)CC2)CC1 | active: 14.6 µM |  |
| CC(=O)COc1ccc2c(-c3ccccc3)cc(=O)oc2c1C | inconclusive [inhibitor, single point] |  |
| O=C(CNS(=O)(=O)c1ccc(Br)cc1)N1CCN(c2ccc(F)cc2)CC1 | active: 18.4 µM |  |
| CSCC[C@H](NC(=O)N1CCn2c1nc1ccccc12)C(=O)N1CCCCC1 |  | inactive: -1.7% |
| O=C(N/N=C1\CCc2ccccc21)c1ccccc1O | active: 23.1 µM |  |
| COc1cc(NC(=O)C(CC(C)C)NS(=O)(=O)c2ccc3c(c2)CCN3C(C)=O)cc(OC)c1 (centres undefined) |  | inactive: 3.25% |
| NC(=O)NC(=O)CSc1nc(C2CCCCC2)n(-c2ccccc2)n1 | inconclusive [inhibitor, single point] |  |
| CCCCCCC(=O)Nc1nc(C)c(-c2csc(Nc3cccc(OC)c3)n2)s1 | active: 16.4 µM |  |
| Cn1c(=O)c2c(nc(N3CCCCCC3)n2CC(=O)c2ccccc2)n(C)c1=O | inconclusive [inhibitor, single point] |  |
| COc1ccccc1N/C=C/C(=C(C#N)C#N)N(C)C | inconclusive [inhibitor, partial curve] |  |
| COc1cc2c(=O)n(CCC(=O)NCC3CCCO3)c(=O)n(CC(=O)Nc3ccc(C)cc3C)c2cc1OC (centres undefined) | inactive |  |
| Cc1nc(SCC(=O)c2cccc([N+](=O)[O-])c2)n[nH]1 | inconclusive [inhibitor, single point] |  |
| Cc1ccccc1Cn1c2ccccc2c2cnn(CC(=O)NC3CCC(C)CC3)c(=O)c21 (centres undefined) | active: 18.4 µM |  |
| COc1ccc(C)cc1NC(=O)CSc1nc(SC)ns1 | inconclusive [inhibitor, single point] |  |
| Cn1cc(S(=O)(=O)Oc2ccccc2)c(=O)n(C)c1=O |  | inactive: -5.81% |
